From ChEMBL document CHEMBL4888484, “Replenishing the malaria drug discovery pipeline: Screening and hit evaluation of the MMV Hit Generation Library 1 (HGL1) against asexual blood stage Plasmodium falciparum ,using a nano luciferase reporter read-out” (2022) come the findings set out here.

Hit rate of the full screen: of about 150,000 compounds, about 540 (0.36%) showed an effect of 50% or more. This is one part of the list.

This assay deals with Plasmodium falciparum. Kind of assay: Primary screen in NF54 nanoGlo assay, in single point, at 2uM, 72h; a lower Z score goes with more inhibition. In kind it is functional, Erythrocyte. Conditions: timepoint 72 hour.
Take `Cc1cc(C)c(CNC(=O)OCC(F)(F)F)c(=O)[nH]1`: the “% Inhibition” value is recorded as -1% and the Z score amounted to 0.18.
Take `COc1c(F)cc(NC(=O)N(C)C2CC[S+]([O-])CC2)cc1F` (stereo not given): the “% Inhibition” value came out at 0% and the Z score is reported as -0.04.
Taken in the same sequence, the figures for `O=C(NCC1CCCO1)C1Cc2cc(C(F)(F)F)ccc2N2CCN(Cc3ccc(F)cc3)CC12` (stereo not given) were 21% and -2.58.
The like results for `CCS(=O)(=O)NCc1nnc(C(=O)Nc2ccc(F)cc2F)s1` were, in that order, 4% and -0.61.
Taken in the same sequence, the figures for `CCO[C@@H](C)c1nc(-c2cc(C(=O)N(C)C)cs2)cs1` were -13% and 1.77.
As for `Cc1nn(C)c(C)c1OC(=O)COc1ccccc1`, the “% Inhibition” value stood at 3% and the Z score is on record as -0.35.
Regarding `COC(=O)[C@@H]1C[C@@H](NC(=O)c2ccccc2C(F)(F)F)CN1`, the “% Inhibition” value is reported as 4% and the Z score is -0.84.
`CC(C)(Oc1ccc(C#N)cc1)c1nc([C@@H]2CCCO2)no1`: the “% Inhibition” value came out at 20% and the Z score is listed as -2.54.
Taken in the same sequence, the figures for `O=C(NC1CCCCC1)N1C[C@@H]2C[C@H](C1)c1c(NS(=O)(=O)c3cccc(F)c3)ccc(=O)n1C2` were 3% and -0.42.
The like results for `C[C@@H](NC(=O)Nc1ccc(Cl)c(Cl)c1)C(=O)O` were, in that order, 32% and -0.74.
Taken in the same sequence, the figures for `COc1ccc(OC)c2c1nc([C@H](C)O)n2C` were -6% and 0.91.
For the molecule `COc1ccc([C@H]2CC(=O)Nc3ccsc32)cc1O`, the “% Inhibition” value is listed as -13% and the Z score stood at 1.91.
For the molecule `CC[C@H](C)N(Cc1c(C)nn(-c2ccccc2)c1N1CCN(CC)CC1)C(=O)Cc1ccc(F)cc1`, the “% Inhibition” value was found to be 8% and the Z score is given as -1.04.
For the molecule `CCOC(=O)CN1C(=O)N(c2cccc(C)c2)c2ncccc2S1(=O)=O`, the “% Inhibition” value turned out to be 0% and the Z score is listed as -0.06.
Turning to `CC(C)(C)[C@@H]1CS(=O)(=O)CCN1C(=O)c1ccnc2ccnn12`, the “% Inhibition” value amounted to 0% and the Z score was 0.01.
As to `CCOC(=O)C[C@H](C)NC(=O)c1c(C)cc(C)cc1C`, the “% Inhibition” value worked out at 3% and the Z score was -0.43.
With `O=S1(=O)CC[C@H](Nc2ncc(F)cn2)C1`, the “% Inhibition” value is -4% and the Z score is listed as 0.7.
With `O=C(NCC1(c2cccs2)CC1)NC1CCOCC1`, the “% Inhibition” value is listed as -21% and the Z score is given as 2.45.
Taken in the same sequence, the figures for `N#CCCCn1nc(C(F)(F)F)ccc1=O` were -11% and 1.43.
The like results for `Cc1cc(N(C)C)cc(C)c1NC(=O)N1CCCC[C@@H]1CCc1ccccc1` were, in that order, -11% and 1.32.
The like results for `Cn1cc(-c2cn(Cc3cscn3)nn2)cn1` were, in that order, 2% and -0.31.
Consider `COc1cc2c(cc1OC)CN(C(=O)c1ccc(-n3cccn3)nn1)CC2`, for which the “% Inhibition” value is listed as 6% and the Z score is given as -1.06.
Taken in the same sequence, the figures for `CC(C)(C)c1cnc(CN2CCC(C(=O)Nc3ncccn3)CC2)o1` were -7% and 0.85.
For `Cn1cncc1CCC(=O)N[C@H]1CC2(CCCC2)Oc2ccccc21`, the “% Inhibition” value was -6% and the Z score is reported as 0.73.
Turning to `CC(C)(C)NC(=O)CNC(=O)c1coc(CC2CC2)n1`, the “% Inhibition” value was -6% and the Z score stood at 1.03.
Taken in the same sequence, the figures for `O=C(c1cccc(-c2cn[nH]c2)c1)N1CCC(F)(F)CC1` were -4% and 0.62.
Taken in the same sequence, the figures for `CCS(=O)(=O)c1c[nH]c(=O)c(C(=O)N2CCc3cccc(C)c32)c1` were -2% and 0.38.
Taken in the same sequence, the figures for `Cc1n[nH]c(C2CCN(C3CCN(c4ccc(C)c(Cl)c4)CC3)CC2)n1` were 3% and -0.47.
On to `CCCn1c(-c2cccc(C(=O)NCc3ccc(C)c(C)c3)c2)nc2cccnc21`, for which the “% Inhibition” value is given as -8% and the Z score was 1.09.
As for `O=C(NS(=O)(=O)C1CCCCC1)c1ccnn1CC(F)(F)F`, the “% Inhibition” value is on record as -7% and the Z score turned out to be 0.95.
As for `O=C1N[C@@]2(CCCN(C(=O)C3CCC3)C2)N=C1c1ccccc1`, the “% Inhibition” value was determined as 0% and the Z score is given as -0.09.
In the case of `CCCc1nc2cc(CCC(=O)NC3CCCC3)ccc2[nH]1`, the “% Inhibition” value is -6% and the Z score is given as 0.73.
Taken in the same sequence, the figures for `CN(C(=O)Cn1cnc2c(c1=O)CCC2)c1ccccc1` were -13% and 1.32.
In the case of `Cc1n[nH]cc1CNCc1csc(C(F)(F)F)c1`, the “% Inhibition” value worked out at 4% and the Z score is given as -0.69.
Consider `Cc1noc(C)c1CNCCc1ccccn1`, for which the “% Inhibition” value was -10% and the Z score is 1.39.
Taken in the same sequence, the figures for `CS(=O)(=O)C1(C(=O)NCCc2cccc3cccnc23)CCCC1` were 1% and -0.24.
Turning to `Cc1nnc(CN(C)C(=O)CCc2cccnc2)o1`, the “% Inhibition” value is -3% and the Z score was 0.49.
The like results for `CCn1ncc(C)c1NC(=O)CCc1ccnn1C` were, in that order, -14% and 2.63.
Taken in the same sequence, the figures for `Cc1cccc(OCCCN(C)C(=O)CCS(C)(=O)=O)c1C` were -4% and 0.55.
Taken in the same sequence, the figures for `O=C(NC1CC1)c1cc2ccccc2cc1O` were -2% and 0.26.
`O=C1CC[C@H](NC(=O)Cc2ccc(Cl)c(Cl)c2)C(=O)N1`: the “% Inhibition” value is -5% and the Z score stood at 0.99.
As for `O=C(Nc1ccc2[nH]ncc2c1)c1cccc(CN2[C@@H]3CC[C@H]2C[C@@H](O)C3)c1`, the “% Inhibition” value is reported as -15% and the Z score came out at 2.34.
Taken in the same sequence, the figures for `Cc1cccc(CN(C(=O)C2CCCC2)c2ccc(CC(=O)NCCN3CCCC3)cc2)c1` were 20% and -2.23.
Turning to `COc1ccc(CCN2Cc3ccc(N)cc3C2)cc1`, the “% Inhibition” value turned out to be 1% and the Z score is -0.09.
Consider `CC(C)c1cc(CN2CCC3(CCC(=O)N(Cc4ccccn4)C3)CC2)on1`, for which the “% Inhibition” value is on record as 2% and the Z score was -0.43.
Taken in the same sequence, the figures for `CCN1C(=O)[C@@H]2[C@H](C1=O)[C@H](C(=O)OC)N[C@@H]2c1cccc(C(F)(F)F)c1` were -7% and 0.8.
The like results for `O=C(O)c1ccc(F)c2c1CN(C(=O)[C@H]1C[C@H]3C=C[C@@H]1CC3)CC2` were, in that order, 1% and -0.27.
`Cc1ccc(-c2cncc(C(=O)N3CCN(C)CC3)n2)c2cccnc12`: the “% Inhibition” value is recorded as -4% and the Z score amounted to 0.61.
`CCc1ncc(C(=O)NCc2nnc(CC)o2)cn1`: the “% Inhibition” value is reported as -10% and the Z score came to 1.01.
For the molecule `O=C(NCc1cnc2n1CCCC2)c1ccc(OC(F)F)nc1`, the “% Inhibition” value is recorded as -6% and the Z score was 0.74.
On to `Cc1ccc(CN2CCc3nc(N4CCOCC4)ncc3C2)cc1C`, for which the “% Inhibition” value was -9% and the Z score was 1.32.
As for `COc1cc2ccc1OCC(=O)N[C@@H](C)C(=O)N(C)CCCCN(C(=O)CCc1cccnc1)CCCNC2=O`, the “% Inhibition” value is on record as -5% and the Z score is 0.82.
On to `CC(NC1CCN(C(C)C)CC1)C(O)Cc1ccccc1` (stereo not given), for which the “% Inhibition” value stood at 4% and the Z score was -0.63.
Taken in the same sequence, the figures for `CCC[C@H](NC(=O)Cc1ccc(F)cc1Cl)c1nnn[nH]1` were -16% and 1.77.
Turning to `O=S(=O)(CC[C@H]1CCCO1)N1CCCC1`, the “% Inhibition” value is reported as -4% and the Z score was 0.52.
As for `CC(=O)N[C@H](C(=O)Nc1ccc(Cl)cc1F)C(C)C`, the “% Inhibition” value is -6% and the Z score was determined as 0.99.
Consider `O=S(=O)(N[C@H]1CCCN(c2ccccc2F)C1)c1cccc2c1OCCO2`, for which the “% Inhibition” value is listed as -7% and the Z score is 0.75.
Take `Cc1cccc(NC(=O)N2CCN(C(=O)c3ccccc3-n3cnnn3)CC2)c1`: the “% Inhibition” value is -6% and the Z score is on record as 0.72.
Taken in the same sequence, the figures for `CCCc1ccc(CN2CC[C@H](NC(=O)c3ccncc3)[C@@H](O)C2)o1` were -5% and 0.82.
`COc1cccc(CO[C@@H]2CN(C(=O)Cn3cncn3)CC(=O)N(CC(C)C)C2)c1`: the “% Inhibition” value is on record as -15% and the Z score is on record as 1.78.
Taken in the same sequence, the figures for `CCn1c(=O)c(C(=O)NC[C@H]2CCCO2)c(O)c2ccccc21` were -10% and 0.91.
Regarding `O=C1CN(CC(=O)Nc2cccc3ccccc23)CCN1`, the “% Inhibition” value is listed as -10% and the Z score was determined as 1.56.
The like results for `CC(C)(C)OC(=O)N1C[C@@H]2OCCN(C(=O)C3CC=CCC3)[C@@H]2C1` (stereo not given in full) were, in that order, -3% and 0.25.
The like results for `O=C(O)CCc1ccc(-c2ncc(F)c(N3CCOCC3)n2)cc1` were, in that order, -3% and 0.62.
On to `Cc1cn(-c2cccnc2)nc1NC(=O)N1CC[C@H](c2cccnc2)C1`, for which the “% Inhibition” value is -6% and the Z score came to 0.83.
In the case of `CC(F)(F)c1ccc(C(=O)N[C@H]2C[C@@](C)(O)C2)cn1`, the “% Inhibition” value is given as -4% and the Z score was 0.49.
The like results for `Cc1cc([O-])c2n(Cc3ccccc3Cl)nc[n+]2n1` were, in that order, 8% and -1.07.
In the case of `COc1ccc([C@H]2CC(=O)Nc3c2ncn3-c2ccccc2F)cc1OCC(N)=O`, the “% Inhibition” value was -12% and the Z score is recorded as 1.48.
For the molecule `Cc1c(CNC(=O)c2[nH]ncc2C(F)(F)F)cnn1C`, the “% Inhibition” value is -2% and the Z score amounted to 0.37.
Take `CC1CC(c2ccccc2)C(C)N1C(=O)C1CC1(Cl)Cl` (stereo not given): the “% Inhibition” value is reported as -7% and the Z score is listed as 0.62.
Taken in the same sequence, the figures for `Cc1cc(-c2ccncc2)nn1CCNC(=O)N1CCNC1=O` were 4% and -0.51.
As for `COc1ccc(-n2nc(C(=O)N3CCCCCC3)nc2-c2ccccc2)cc1`, the “% Inhibition” value is on record as -12% and the Z score turned out to be 2.34.
The like results for `CCOC(=O)C(=O)Nc1cc(C(=O)OC)cc(C(=O)OC)c1` were, in that order, -5% and 0.78.
As for `O=C1COc2ccc(S(=O)(=O)N[C@H]3CCOc4ccccc43)cc2N1`, the “% Inhibition” value was -2% and the Z score worked out at 0.36.
With `Cc1ccc(C(=O)N2CCc3c(c(CCC(=O)N4CCCCC4)nn3C)C2)cn1`, the “% Inhibition” value is -12% and the Z score is 1.55.
Taken in the same sequence, the figures for `CCn1cc(S(=O)(=O)Nc2sccc2C(=O)NC)cn1` were 7% and -0.89.
The like results for `CC(=O)N(C1CCOCC1)[C@H]1CCN(C(=O)Nc2ccc(C)cc2C)C1` were, in that order, 28% and -3.2.
As to `C[C@@H]1CC[C@H](C)N1S(=O)(=O)c1sc2c(c1C(=O)O)CCNC2`, the “% Inhibition” value is on record as -9% and the Z score is given as 1.56.
Taken in the same sequence, the figures for `CC(C)(CCC(=O)NC1CCCCC1)C(=O)NC1CCCCC1` were -5% and 0.82.
Taken in the same sequence, the figures for `Cc1ccc(CNC(=O)Cc2cccs2)s1` were -6% and 0.83.
On to `CC(=O)N1CCN(C2CN(CC(C#N)CCC#N)CC2C)CC1` (stereo not given), for which the “% Inhibition” value is listed as -8% and the Z score is listed as 0.92.
The like results for `O=C(NC1CCCCC1)c1ccc(NS(=O)(=O)c2cccs2)cc1O` were, in that order, 4% and -0.34.
Taken in the same sequence, the figures for `O=C1C2C3C=CC(C3=C(c3ccccc3)c3ccccc3)C2C(=O)N1c1cccc2ccccc12` (stereo not given) were 20% and -2.52.
The like results for `O=C(NCc1cc(F)cc(F)c1)C1CCN(c2cnc(N3CCOCC3)nc2)CC1` were, in that order, -9% and 1.08.
Turning to `CCc1cccc2c1NC(=O)[C@]21[C@@H]2C(=O)N(Cc3ccc4c(c3)OCO4)C(=O)[C@@H]2[C@@H]2CCCN21`, the “% Inhibition” value is reported as -14% and the Z score stood at 1.81.

A word on the % Inhibition: it is the drop in the measured response relative to a control, in per cent.
